Test results from PubChem BioAssay AID602233 (National Center for Advancing Translational Sciences (NCATS), 2012).
Out of some 380,000 compounds screened, about 170 (0.045%) were called active. The inconclusive results got no clear call from the source; some entries with a clear call stand among them for comparison. The call rests on the fitted dose curve; in most records, active means well fitted inhibition curve with a large enough effect; inconclusive means small, poorly fitted or top-dose-only effect; inactive means no such curve, though single readings can be large or run the other way. Potencies of inconclusive entries are left out as doubtful fits.
Further: nearly all actives have a fitted effect of over 60% in size.
On the % scale 0 is the no-effect control and ±100 the full control effect; potency means the concentration at half of the fitted maximal effect; tags describe the fitted curve by direction and shape.

What follows are compounds tested against Phosphoglycerate kinase, glycosomal (Trypanosoma brucei brucei) (UniProt P07378) (assay: qHTS Assay to Find Inhibitors of Phosphoglycerate Kinase). Details: PGK/GAPDH coupled, Kinase-Glo luminescence, 60 min; series mostly up to 57.5 µM; activity change, negative = inhibition: at the top concentration.
Procedure, shortened: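 Luminescent ATP detection (Kinase-Glo Plus) follows a 60-minute room-temperature incubation, with wells lacking PGK as controls. Buffer: 100 mM TEA (pH 7.6), 5 mM MgCl2, 0.01% Tween-20. Coupling enzyme GAPDH (100 nM final) supplies unstable 1,3-BPG in-well.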
For `Nc1ccc2c(c1)C(=O)C(=O)c1ccccc1-2`, the Potency was inconclusive [inhibitor, full curve, poor fit].
`COc1ccc2c(c1)c(=O)oc1cc(OCC(=O)N3CCc4ccccc4C3)ccc12` was tested, and the Potency was inconclusive [inhibitor, partial curve].
In the case of `CCOC(=O)C1=C(C)N=c2s/c(=C/c3ccc(OCC(=O)O)cc3)c(=O)n2C1c1ccc(OC)cc1OC` (stereo not drawn), the Potency is reported as inconclusive [inhibitor, single point].
`O=C(Nc1ccc(C(=O)N2CCCC2)cc1)c1ccccc1F` was tested, and the Potency was inconclusive [inhibitor, partial curve, poor fit].
With `COc1ccc(CC(C)Nc2cccc(SC)c2)cc1` (stereo not drawn) the “activity change, negative = inhibition” value was inactive: 0.244%.
For `Nc1c(C(=O)NCC2CCCO2)sc2nc3c(c(-c4ccco4)c12)CC/C3=C\c1ccco1` (stereo not drawn), the Potency was inconclusive [inhibitor, full curve, poor fit].
`COc1ccccc1Nc1ccc2c(O)cc(S(=O)(=O)O)cc2c1` was tested, and the Potency was active: 22.4 µM.
With `CCc1ccc(CCC(=O)Nc2sc(C)c(C)c2C(=O)OC)o1` the Potency was inconclusive [inhibitor, single point].
`CCN1C(=O)/C(=C\c2nc3ccccc3c(=O)n2CC)c2ccccc21` was tested, and the Potency was inconclusive [inhibitor, single point].
In the case of `Cc1cccc(NC(=O)CSc2nnc(-c3ccco3)c(-c3ccco3)n2)c1C`, the “activity change, negative = inhibition” value is reported as inactive: -18.8%.
With `O=C(/C=C/c1ccco1)c1cccc([N+](=O)[O-])c1` the “activity change, negative = inhibition” value was inactive: -4.21%.
With `O=C(O)CC(CCc1ccccc1)OC1OC(CO)C(O)C(O)C1O` (stereo not drawn) the Potency was inconclusive [inhibitor, full curve, poor fit].
With `Cc1nn(C)c2c1c(-c1ccccc1)cc(=O)n2CC(=O)NC(C)c1ccccc1` (stereo not drawn) the Potency was inconclusive [inhibitor, partial curve, poor fit].
`O=C(CSc1nccc(=O)[nH]1)NCc1ccco1` was tested, and the Potency was inconclusive [inhibitor, partial curve, poor fit].
With `Cc1sc(NC(=O)CCS(=O)(=O)c2ccccc2)c(C#N)c1C` the “activity change, negative = inhibition” value was inactive: -0.984%.
`Cc1ccc(CNC(=O)c2ccc(C#CC(C)(C)O)s2)cc1` was tested, and the Potency was inconclusive [inhibitor, single point].
`COc1ccccc1NC(=O)C1=C(C)Nc2nc(SCc3ccccc3)nn2C1c1cccc(O)c1` (stereo not drawn) was tested, and the “outcome” value was “inactive”.
In the case of `COc1ccc(NC(C)=O)c([N+](=O)[O-])c1[N+](=O)[O-]`, the “activity change, negative = inhibition” value is reported as inactive: -8.59%.
`COc1ccc(NC(=O)C(NS(=O)(=O)c2cccc3nsnc23)C(C)C)cc1` (stereo not drawn) was tested, and the “activity change, negative = inhibition” value was inactive: -4.11%.
For `O=C(Nc1ccc(N2CCCCC2)cc1)c1ccccn1`, the Potency was inconclusive [inhibitor, partial curve].
For `O=C(Nc1ccnn1C1CCN(C(=O)c2cnsn2)CC1)c1cccc(F)c1`, the Potency was inconclusive [inhibitor, partial curve, poor fit].
In the case of `Cc1cccc(N2CCN(C(=O)CS(=O)(=O)c3cccc4nsnc34)CC2)c1C`, the “activity change, negative = inhibition” value is reported as inactive: -8.31%.
For `COc1ccc(C(=O)COC(=O)c2cccs2)cc1`, the Potency was inconclusive [inhibitor, single point].
With `O=C(COC(=O)c1cncc(Br)c1)NCc1ccco1` the Potency was inconclusive [inhibitor, partial curve].
In the case of `CCCn1nc(C(=O)Nc2cc(S(=O)(=O)Nc3ccc(OC)cc3)ccc2O)c2ccccc2c1=O`, the “outcome” value is reported as “inactive”.
In the case of `CCOc1ccc(S(=O)(=O)N2CCN(Cc3nc4ccc(C)cc4o3)CC2)cc1`, the “activity change, negative = inhibition” value is reported as inactive: -1.64%.
For `Oc1cc2c(cc1O)C1c3ccc(O)c(O)c3OCC1(O)C2` (stereo not drawn), the Potency was inconclusive [inhibitor, partial curve, poor fit].
With `CC1(C)CC2(CCCN(C(=S)Nc3ccccc3)C2)CCO1` (stereo not drawn) the Potency was inconclusive [inhibitor, partial curve, poor fit].
With `CC(C)(C)OC(=O)C[C@H]1C/C=C\C[C@H](CC(=O)N(CCO)Cc2ccccc2)C(=O)NC[C@H](c2ccccc2)OC1=O` the Potency was inconclusive [inhibitor, partial curve, poor fit].
For `Cc1ccc(-n2nnc(-c3nccs3)n2)cc1`, the Potency was inconclusive [inhibitor, partial curve, poor fit].
`Cc1c(Br)c(=O)oc2c(Br)c(O)c(O)cc12` was tested, and the Potency was inconclusive [inhibitor, partial curve, poor fit].
For `CCOC(=O)Cc1nnc(Nc2ccc(C)cc2)c2ccccc12`, the “activity change, negative = inhibition” value was inactive: -9.59%.
With `COC(=O)c1ccccc1NC(=O)C1CC=CCC1C(=O)O` (stereo not drawn) the Potency was inconclusive [inhibitor, single point].
In the case of `Cc1occc1C(=O)N/N=C/c1cccs1`, the Potency is reported as inconclusive [inhibitor, partial curve, poor fit].
In the case of `CNC(=O)N(O)C1N(/N=C/c2c(F)cccc2Cl)C(=S)SC1(C)C` (stereo not drawn), the Potency is reported as inconclusive [inhibitor, single point].
With `O=C1NN(c2ccccc2)C(=O)/C1=C/c1ccc(-c2ccc(Cl)c(C(=O)O)c2)o1` the Potency was inconclusive [inhibitor, single point].
`Cc1[nH]n(-c2ccccc2)c(=S)c1C=NCCCN=Cc1c(C)[nH]n(-c2ccccc2)c1=S` was tested, and the “activity change, negative = inhibition” value was inactive: 0.929%.
For `CCN(CC)c1ccc(N=Nc2nn(C)c(C)c2[N+](=O)[O-])cc1`, the “activity change, negative = inhibition” value was inactive: -20.4%.
For `CCOc1ccc(NC(=S)N(Cc2ccc(N(C)C)cc2)Cc2ccco2)cc1`, the Potency was inconclusive [inhibitor, partial curve, poor fit].
For `Nc1nc(SCC(=O)N2N=C3/C(=C/c4ccco4)CCCC3C2c2ccco2)n[nH]1` (stereo not drawn), the “activity change, negative = inhibition” value was inactive: -7.61%.
With `O=C(O)c1ccc(COc2c(F)c(F)c(F)c(F)c2F)o1` the Potency was inconclusive [inhibitor, partial curve, poor fit].
With `COc1ccc(S(=O)(=O)N2CCC(n3c(C)nc4cccnc43)CC2)cc1Cl` the Potency was inconclusive [inhibitor, partial curve, poor fit].
For `CCOc1cc2nc(-c3ccc(OC)c(OC)c3)nc(NCCCN3CCOCC3)c2cc1OC`, the “activity change, negative = inhibition” value was inactive: 2.85%.
